# Source: article PMC6919601, “Identification of Plasmodium dipeptidyl aminopeptidase allosteric inhibitors by high throughput screening” (PLoS ONE, 2019)
# In all, about 110,000 compounds went through this assay and about 230 (0.21%) showed an effect of 50% or more. The list shows a part of the results.
# Target: DPAP1 (Plasmodium falciparum, UniProt Q8IIJ9)
# Assay: primary screen, percent inhibition; read by cleavage of a fluorogenic dipeptide substrate; higher = more effect of the substance
# Parameters: species or system P. falciparum D10 trophozoite lysates; single well
# 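Also: 30 min substrate incubation versus DMSO and 10 µM JCP410 controls.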
# DPAP1, sequence (Q8IIJ9 whole entry, looked up): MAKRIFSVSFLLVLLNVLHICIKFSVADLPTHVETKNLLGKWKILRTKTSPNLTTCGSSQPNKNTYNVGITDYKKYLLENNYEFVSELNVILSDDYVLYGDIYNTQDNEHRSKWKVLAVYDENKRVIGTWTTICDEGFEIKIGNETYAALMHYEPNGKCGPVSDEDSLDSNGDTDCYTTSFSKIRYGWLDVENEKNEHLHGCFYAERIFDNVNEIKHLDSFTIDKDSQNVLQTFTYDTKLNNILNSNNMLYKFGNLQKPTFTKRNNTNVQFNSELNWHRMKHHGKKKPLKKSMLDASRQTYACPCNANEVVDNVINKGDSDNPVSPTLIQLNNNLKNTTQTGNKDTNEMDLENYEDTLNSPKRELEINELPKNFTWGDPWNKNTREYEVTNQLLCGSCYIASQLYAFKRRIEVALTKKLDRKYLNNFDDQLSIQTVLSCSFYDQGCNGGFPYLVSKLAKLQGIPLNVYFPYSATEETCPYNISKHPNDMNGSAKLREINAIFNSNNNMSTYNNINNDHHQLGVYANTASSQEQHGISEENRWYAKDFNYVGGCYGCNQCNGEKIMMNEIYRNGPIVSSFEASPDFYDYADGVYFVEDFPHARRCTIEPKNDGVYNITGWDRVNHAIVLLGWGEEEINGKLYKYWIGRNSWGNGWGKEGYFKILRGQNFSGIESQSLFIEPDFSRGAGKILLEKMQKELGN
row,SMILES,% Inhibition @ 10 uM
1,CCN1CCC2(CC1)N=C(c1ccc(F)cc1)C(=S)N2,-2.67%
2,CC1=C(c2ccc(Cl)cc2)NN=C(/N=C/c2ccco2)S1,-2.41%
3,COc1ccc(S(=O)(=O)N(C)CC(=O)Nc2ccc(F)cc2)cc1,-2.6%
4,O=C(NCCc1ccc(Cl)cc1)c1cc(S(=O)(=O)N2CCCCC2)ccc1F,3.04%
5,C=CCn1c(=N)n(CC(O)c2ccc(Br)cc2)c2ccccc21 (stereo not drawn),-8.73%
6,COc1cccc2oc(-c3ccccc3)c(Br)c12,-11.3%
7,Cc1ccc(-c2ccc(=O)n(Cc3c(F)cccc3Cl)n2)cc1,-0.946%
8,CC(=O)c1ccc(N2CN=C3SCC(=O)N3C2)cc1,2.08%
9,Oc1nc(Cn2c(-c3cncs3)nc3ccccc32)nc2ccccc12,2.25%
10,Cc1cccn2c(=O)c(/C=C(\C#N)C(=O)NCC3CCCO3)c(Oc3ccc(C(C)(C)C)cc3)nc12 (stereo not drawn),0.315%
11,COC(=O)c1cc2sc(Cl)cc2n1Cc1nc(-c2ccc(OC)c(OC)c2)oc1C,-1.2%
12,CCC[C@H](NC(=O)C1(NC(=O)c2ccc(OC)c(OC)c2)CCCCC1)C(=O)c1nc2ccccc2o1,-1.41%
13,CC(C)COc1ccc(/C=C2/NC(=O)N(Cc3ccccc3F)C2=O)cc1,-5.57%
14,CCc1ccc(OCC(=O)N2CCN(Cc3ccc4c(c3)OCO4)CC2)c(Br)c1,-1.16%
15,ON=C1CCN(Cc2ccccc2)CC1,2.62%
16,COCCn1c(=N)c(C(=O)NC2CCCCC2)cc2c(=O)n3cc(C)ccc3nc21,1.97%
17,O=C(Nc1ccccc1[N+](=O)[O-])C1CC1(c1ccccc1)c1ccccc1 (stereo not drawn),4.8%
18,Clc1ccc(-c2csc(N3N=C(c4ccccc4)CC3c3ccccc3)n2)cc1 (stereo not drawn),-4.08%
19,COc1ccc(N(CC(=O)Nc2ccc(C)cc2C)S(=O)(=O)c2ccccc2)cc1,0.324%
20,COc1ccc(CC/N=C2/C=C(O)CC(C)(C)C2)cc1OC,-9.75%
21,O=c1[nH]c(/C=C/c2ccccc2O)c([N+](=O)[O-])c(=O)[nH]1,3.83%
22,CCOCCCNC(=O)C1CCCN(C(=O)c2cc3sccc3n2CC)C1 (stereo not drawn),-8.38%
23,Cc1ccc(N2CCN(S(=O)(=O)N(C)C)CC2)c(C)c1,-6.62%
24,Cc1nn(CC(=O)N2CCC3(CC2)OCCO3)c(=O)c2cc3sccc3n12,6.46%
25,Cc1ccc(OCC(=O)Nc2cccc3c2CCCC3)c(Br)c1,5.35%

row,SMILES,% Inhibition @ 10 uM
1,CCCCCCOc1ccc(CN2CCc3ccccc3C2)cc1,0.472%
2,Cc1nn(CCC(=O)NCC(C)c2ccccc2)c(=O)c2nn(-c3ccccc3)c(C)c12 (stereo not drawn),1.8%
3,Cc1sc(NC(=O)C(Sc2ccccc2)c2ccccc2)c(C(N)=O)c1C (stereo not drawn),2.01%
4,Cc1noc2ncnc(N3CCN(Cc4ccc5c(c4)OCO5)CC3)c12,-6.14%
5,c1csc(C[n+]2ccc3ccccc3c2)c1,-0.318%
6,Cc1sc2ncnc(N3CCOCC3)c2c1C,13.5%
7,O=C(NCc1nnc(SCc2cccnc2)o1)c1ccccc1F,-7.21%
8,CC(C)(C)c1coc2cc3oc(=O)c4c(c3cc12)CCC4,-2.57%
9,CCSc1nc(O)c2c(n1)N=C(C)/C(=C(\O)OC)C2c1ccc(C(=O)OC)cc1 (stereo not drawn),1.16%
10,O=C1CCCN1c1ccc(S(=O)(=O)N2CCCCC2)cc1[N+](=O)[O-],-2.72%
11,O=C(CN1C(=O)S/C(=C\c2ccc(-c3ccccc3)o2)C1=O)N1CCCC1,3.26%
12,CCc1cccc(C)c1-n1cccc1/C=C1/C(=N)N2C=CSC2=NC1=O,6.63%
13,COc1ccccc1NC(=O)C1C2C3CCC(C3)C12 (stereo not drawn),-4.97%
14,Cc1ccc(C(C)C)c(Oc2ccc(C(=O)O)cc2)c1,-3.27%
15,CC(C)(C)c1ccc(OCCCn2ccnc2)cc1,-5.84%
16,CCc1ccc(C2c3c(-c4ccccc4O)n[nH]c3C(=O)N2CCCOC(C)C)cc1 (stereo not drawn),5.17%
17,COc1nc(NCC(C)C)nc(Oc2ccc(O)nn2)n1,-0.958%
18,Cc1c2cnn(CC(=O)N3CCOCC3)c(=O)c2c(C)n1Cc1ccc(Cl)cc1,1.22%
19,O=C(Nc1cnc2ccccc2c1)c1cccc(F)c1,1.69%
20,Cc1nn2c(C(F)(F)F)cc(-c3ccco3)nc2c1-c1ccccc1,-1.43%
21,CCOc1cc(C2C(C(=O)c3cc4ccccc4o3)=C(O)C(=O)N2Cc2ccco2)ccc1O (stereo not drawn),-1.96%
22,CCOC(=O)c1cnc2cc(-c3ccc(C)cc3)nn2c1-c1ccccc1,1.52%
23,CC1(C)Cc2c(c(N3CCOCC3)nc3sc(C(=O)NCc4ccccc4)c(N)c23)CO1,-1.72%
24,CC1=NCCN1S(=O)(=O)c1cc(C)c(Cl)cc1Cl,-2.65%
25,FC(F)(F)c1cccc(CSc2nc3cccnc3[nH]2)c1,-4.14%

row,SMILES,% Inhibition @ 10 uM
1,N#CCNC(=O)c1ccc(OCc2ccccc2)cc1,9%
2,O=C(CCCCCCC(=O)Nc1cccc2ccccc12)Nc1cccc2ccccc12,-1.29%
3,COc1ccc(C2CC(=O)N=C(Nc3nc(C)c4ccc(C)cc4n3)N2)cc1 (stereo not drawn),19.2%
4,Cc1ccc2onc(CC(=O)N3CCN(c4ccccn4)CC3)c2c1,3.71%
5,O=C1NC2(CCCCC2)N(C(=O)c2ccccc2Br)C2=C1CCCC2,0.366%
6,CCc1cccc2c(C(=O)C(F)(F)F)cn(CC(=O)N(CC)CC)c12,-2.9%
7,CCCCN1CCN(c2nc(-c3ccccc3)c3cc(C)ccc3n2)CC1,-7.89%
8,CC1=C(C(=O)Nc2ccccc2)C(c2cccs2)C(C#N)=C(SCC(N)=O)N1 (stereo not drawn),0.962%
9,Cc1nn(CC(O)Cn2cnc3c2c(=O)n(C)c(=O)n3C)c(C)c1Br (stereo not drawn),-1.18%
10,CCCS(=O)(=O)N1CCC(C(=O)NCCCN2CCOCC2)CC1,-5.43%
11,CSc1ccc(C2C=C(c3ccc(Cl)cc3)Nc3ncnn32)cc1 (stereo not drawn),-7.08%
12,COCCCn1c(=O)c2sccc2n2c(CCCC(=O)NCc3ccccc3)nnc12,1.1%
13,COc1ccc(C2CC(=O)c3cnc(N)nc3C2)cc1OC (stereo not drawn),6.57%
14,CCc1ccc(CNCc2c(C(=O)O)n(Cc3ccccc3C)c3cc(OC)ccc23)cc1,2%
15,COC(=O)c1c(NC(=O)c2nc3ncccn3n2)sc(C(=O)N(C)C)c1C,4.08%
16,CC(C)(C)c1ccc(C(=O)N2CCC(C(=O)N3CCN(c4ccccc4F)CC3)CC2)cc1,-2.46%
17,COc1ccc(CCNc2oc(/C=C/c3ccc(F)cc3)nc2C#N)cc1OC,2.54%
18,COc1ccccc1N1C(=O)C2C(c3cccc(C)c3)OC3(C(=O)c4ccccc4C3=O)C2C1=O (stereo not drawn),-2.98%
19,O=C1NCCCN1Cc1cccc(Cl)c1,-1.75%
20,O=C(CCc1nnc2ccc(N3CCOCC3)nn12)NCc1ccc2c(c1)OCO2,-6.95%
21,Cn1c(C(O)(c2ccccc2)C(O)c2ccco2)nc2ccccc21 (stereo not drawn),-0.996%
22,Cc1nn(CCCC(=O)N2CC(C)CC(C)C2)c(=O)c2c1sc1ccccc12 (stereo not drawn),-3.43%
23,CCOCCCNC(=O)C1c2ccccc2C(=O)N(C2CCCC2)C1c1cccs1 (stereo not drawn),-1.4%
24,CCN(CC)C(=O)CNC(=S)N(CCCN1CCOCC1)Cc1cccs1,-2.14%
25,O=C(Cn1ncc2c3ccccc3n(Cc3cccc(Cl)c3)c2c1=O)N1CCOCC1,1.8%

row,SMILES,% Inhibition @ 10 uM
1,COc1ccccc1NC(=O)C1CC(=O)N(c2ccc(F)cc2)C1 (stereo not drawn),3.69%
2,OCC1CCCN(c2ncccn2)C1 (stereo not drawn),4.98%
3,O=C(O)CSc1nc2ccccc2n2cnnc12,-1.14%
4,Cc1ccc2c(c1)C1C=CCC1C(c1ccc([N+](=O)[O-])cc1)N2 (stereo not drawn),4.61%
5,OCCN(CCO)Cc1ccccc1F,-2.34%
6,CCC1CCCCN1C(=O)CCCCn1c(=S)[nH]c2c([nH]c3ccc(OC)cc32)c1=O (stereo not drawn),-2.19%
7,Cc1ccc(C(=O)O)cc1-c1ccc(C=C2C(=O)OC3(CCCCC3)OC2=O)o1,1.97%
8,Cc1ccc(OCC(=O)NCc2ccco2)c(C(C)(C)C)c1,-2.6%
9,N#CCNC(=O)[C@H](CSCc1ccccc1)NC(=O)c1cccc(F)c1,-6.98%
10,Cc1nc2scc(C)n2c(=O)c1S(=O)(=O)N1CCC(C)CC1,-1.55%
11,COc1cc(Br)c(CCn2c(=O)[nH]c(=O)c3sc(N)nc32)cc1OC,2.31%
12,Cc1ccccc1CN1CCC(O)CC1,-1.77%
13,Cc1cc(O)c(C2=Nc3ccccc3SC(c3cccc(O)c3)C2)c(=O)o1 (stereo not drawn),6.08%
14,CCN(CC)c1ccc(NC(=O)COc2cc(C)ccc2C)cc1,2.01%
15,CC(=O)C1=C(C)Nc2ncnn2C1c1ccc(OCc2ccccc2)cc1 (stereo not drawn),2.38%
16,Cc1ccc(C)c(CN2CCCN(C(=O)c3sc4nc5n(c(=O)c4c3C)CCCCC5)C2)c1,0.943%
17,CC(=O)Nc1ccc(S(=O)(=O)Nc2cccc(Cl)c2Cl)cc1,4.57%
18,CCOC(=O)c1ccc2c(c1)c(C)c(C)n2Cc1ccccc1,0.605%
19,O=C(Nc1nccs1)/C(NC(=O)c1ccccc1)=C(/Cl)c1ccccc1,-1.29%
20,CC1CCC(C(C)C)C(OCC(O)CNC(C)C)C1 (stereo not drawn),1.63%
21,COc1ccc2c(c1)c1c(c(=O)n(CCc3ccccc3)c(=O)n1CC(N)=O)n2C,-0.913%
22,CCOC(=O)N1CCC(c2cc(O)n3nccc3n2)CC1,-1.03%
23,CCn1cc(C(=O)NCCCN2CCOCC2)c2cc(OC)c(OC)cc2c1=O,-6.6%
24,CCOC(=O)c1c(C)oc2ncnc(NCc3cccnc3)c12,-2.19%
